The source of these data is the RNAGym collection of RNA variant scans (doi:10.1073/pnas.2313332121).

To fix the notation:
B1: TPR 5TU (parent)
chain: GGAUCUUCUCGAUCUAACAAAAAAGACAAAUCUGCCACAAAGCUUGAGAGCAUCUUCGGAUGCAGAGGCGGCAGCCUUCGGUGGCGCGAUAGCGCCAACGUUCUCAACUAUGACACGCAAAACGCGUGCUCCGUUGAAUGGAGUUUAUCAUG

Variants at the floor of the assay are shown more often than the library holds them.

Variants of B1 are the subject of this data set. Nature of the data set: polymerase ribozyme fitness, log enrichment relative to wild type (log ratio); higher = more active; in vitro selection for triplet polymerase activity. In short, it runs like this: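 Mutant libraries were PCR-built and transcribed for each subunit of a heterodimeric triplet polymerase ribozyme and selected for one round in triplicate at −7 °C, frozen, before gel excision of extended constructs and streptavidin-bead capture. Input and output libraries were Illumina-sequenced, keeping genotypes with ≥10 input reads and ≥1 read per output. Fitness is a logarithmic ratio of genotype to wild-type enrichment, in base 2, using inverse-variance-weighted replicate averages.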
Regarding GGAUCUUCUCGAUCUAACAAAAAAGACAAAUCUGCCACAAAGCUUGAGUGCAUCUUCGGAUGCAGAGGCGGCAGCAGUCGGUGGCGCGAUAGCGGUAACGUUCUCAAUUAUGACACGCAAAACGCGUGCUCCGUUGAAUGGGGUUUAUCAUG [A49U C76A U77G C95G C96U C108U A142G], the “polymerase ribozyme fitness (log ratio)” value is no more than -4.2.
The value for GGAUCUUCUCGAUCUAACAAAAAAGACAAAUCUGCCACAAAGCUUGAGUGCAUCUUCGGAUGCAGAGGCGGCAGCCUUCGGUGGCGCGUUUGCGCCAACGUUCUCAACUAUGACACGCAAAACGCGUGCUCCGUUGAAUGGAGUUUAUCAUG [A49U A89U A91U] was no more than -4.2.
The value for GGAUCUUCUCGAUCUAACAAAAAAGACAAAUCUGCCACAAAGCUUGAGUGCAUCUUAGGAUGCAGAGGCGGCUGCCUUCGGUGGCGCGAUAGCGCCAACGUUCUCAACUAUGACACGCAAAACGCGUGCUCCGUUGAAUUGAGUUUAUCAUG [A49U C57A A73U G140U] was no more than -4.2; that for GGAUCUUCUCGAUCUAACAAAAAAGACAAAUCUGCCACAAAGCUUGAGUGCAUCUUCGGAUGCAGAGGCGGCAGCCUUCGGUGGAGCGAUAGCGCCGACGUUCUCAGCUAUGACACGCAAGACGCGUGCUCCGUUGAAUGGAGUUUAUCAUG [A49U C85A A97G A107G A121G] was no more than -4.2; that for GGAUCUUCUCGAUCUAACAAAAAAGACAAAUCUGCCACAAAGCUUGAGUGCAUCUUCGGAUGCAGAGGCGGCAGCCUUCGGUGGCGCGAUAGUGCCAACUUUCUCAACUAUGACAUGCAAAACGCGUGCUCCGUUGAAUGGAGUUUAUCAUG [A49U C93U G100U C116U] was no more than -4.2.
Next, GGAUCUUCUCGAUCUAACAAAAAAGACAAAUCUGCCACAAAGCUUGAGUGCAUCUUCGGAUGCAGAGGCGGCAGCCUUCGGUGGCGAGAUAGCGCCAACGUUCUCAACUAUGACACGCAAAACGCGUGCUCCGUUGAAUGGAGUUUAUCAUG [A49U C87A]: no more than -4.2; GGAUCUUCUCGAUCUAACAAAAAAGACAAAUCUGCCACAAAGCUUGAGUGCCUCUUCGGAUGCAGAGGCGGCAGCCUUCGGUUGCGCGAUUGCGCCAACGUUCUCAACUAUGACACGCAAAACGCGUGCUCCGUUAAAUGGAGUUUAUCAUG [A49U A52C G83U A91U G136A]: no more than -4.2; GGAUCUUCUCGAUCUAACAAAAAAGACAAAUCUGCCACAAAGCUUGAGUGCCUCUUCGGAUGCAGAGGCGGCAGCCUUCGGUGGCGCGGUAGCGUCAACGUUCUCAACUAUGACUCGCAAAACGCGUGCUCCGUUGAAUGGAGUUUAUCAUG [A49U A52C A89G C95U A115U]: no more than -4.2.
Regarding GGAUCUUCUCGAUCUAACAAAAAAGACAAAUCUGCCACAAAGCUUGAGUGCAUCUUCGGAUGUAGAGGCGGCAGCAUUCGGUGGCGCGAUGGCGCCAACGUGCGCAACUAUGACACGCAAAACGCGUGCUGCGUUGAAUGGAGUUUAUCAUG [A49U C63U C76A A91G U102G U104G C131G], the “polymerase ribozyme fitness (log ratio)” value was no more than -4.2.
In the case of GGAUCUUCUCGAUCUAACAAAAAAGACAAAUCUGCCACAAAGCUUGAGUGCAUCUUCGGAUGCAGAGGCGGCAGCCUUCGGUGGGGCGAUAGCGCCAACGUUCUCAACUAUGACCCGCAAAACGCGUGCUCCGUUGAAUGGAGUUUAUCAUG [A49U C85G A115C], the “polymerase ribozyme fitness (log ratio)” value is -3.64.
For the variant GGAUCUUCUCGAUCUAACAAAAAAGACAAAUCUGCCACAAAGCUUGAGUGCAUCUUCGGAUGCAGAGGCGGCAGGCUUCGGUGGCGCGAUAGUGCCAACGUUCUCAACUAUGACACGCAAAACGCGUGCUCCGUUGAAUGGAGUUUAUCAUG [A49U C75G C93U], the “polymerase ribozyme fitness (log ratio)” value was no more than -4.2.
Take GGAUCUUCUCGAUCUAACAAAAAAGACAAAUCUGCCACAAAGCUUGAGUACAUCUUCGGAUGCAGAGGCGGCAGCCUUCGGUGGCGCGAUAGCGCCAACGUUCUCAACUAUGACACGCAAAACGCGUGCUCCGUUGAAUGGAGUUUAUCAUG [A49U G50A]: the “polymerase ribozyme fitness (log ratio)” value was -0.047.
With GGAUCUUCUCGAUCUAACAAAAAAGACAAAUCUGCCACAAAGCUUGAGUGCAUCUUCGGAUGCAGGGGCGGCAGCCUUCGGUGACGUGAUAGCGCCAGCGUUCUCAACUAUGACACGCAAAACGCGUGCUCCGUUGAAUGGAGUUUAUCAUG [A49U A66G G84A C87U A98G], the “polymerase ribozyme fitness (log ratio)” value is no more than -4.2.
Take GGAUCUUCUCGAUCUAACAAAAAAGACAAAUCUGCCACAAAGCUUGAGUGCAUCUUCGGAUGCAGAGGCGGCAGCCUUCGGUGGCGCGAUAGAGCCAAAGUUCUCAACUAUGACACGCAAAACGCGUGCUCCGUUGAAUGGAGUUUAUCAUG [A49U C93A C99A]: the “polymerase ribozyme fitness (log ratio)” value is no more than -4.2.
Take GGAUCUUCUCGAUCUAACAAAAAAGACAAAUCUGCCACAAAGCUUGAGUGCAUCUUCGGAUGCAGAGGCGGCAGCCUUCGGUGGCGCGAUAGAGCCAACGUUCUCAACUAUGACACGCAAAACGCGUGCUCCGUUGAAUGGAGUUUAUCAUG [A49U C93A]: the “polymerase ribozyme fitness (log ratio)” value was -3.3.
GGAUCUUCUCGAUCUAACAAAAAAGACAAAUCUGCCACAAAGCUUGAGUGCAUCUUCGGAUGCAGAGGCGGCAGCCUUCGGUGGCGCGAUAGUGCCAACGUUCUCAACUAUGACACGCAAAACGCGUGCUCCGUUGAAUGGAGUUUAUCAUG [A49U C93U]: the “polymerase ribozyme fitness (log ratio)” value was -1.38.
Turning to GGAUCUUCUCGAUCUAACAAAAAAGACAAAUCUGCCACAAAGCUUGAGUGCAUCUUCGGAUGCAGAGGCGGCAGCCUUCGGUGGCGUGAUAGCGCCAACGUUUUCAACUAUGACACGCAAAACGCGUGCUCCGUUGAAUGGAGUUUAUCAUG [A49U C87U C103U], the “polymerase ribozyme fitness (log ratio)” value was no more than -4.2.
In the case of GGAUCUUCUCGAUCUAACAAAAAAGACAAAUCUGCCACAAAGCUUGAGUGCAUGAUCGAGUGCAGAGGCGGCAGCCUUCGGUGGCGCGAGAGCGCCAACGUUCUCUACUAUGACACGCAAAACCCGUGCUCCGUUGAAUGGAGUUUAUCAUG [A49U C54G U55A G59A A60G U90G A106U G124C], the “polymerase ribozyme fitness (log ratio)” value is no more than -4.2.
As for GGAUCUUCUCGAUCUAACAAAAAAGACAAAUCUGCCACAAAGCUUGAGUGCAUCUUCGGAUGCAGAGGCGGCAGCCUUCGGUGGCGCGAUAGAGACAACGUUCUCAACUAUGACACGCAAAACGCGUGAUCCGUUGAAUGGAGUUUAUCAUG [A49U C93A C95A C129A], the “polymerase ribozyme fitness (log ratio)” value was no more than -4.2.
